The full ranking holds about 2,700 sequences; the median of “arbitrary fluorescence units” is about 4,100, and the highest 2% start at about 54,000. The list shows a part of the results.

The source of these data is the supplement of paper PMC10681739.

The assay concerns the target T1, ETS1 (UniProt P14921).
T1 sequence: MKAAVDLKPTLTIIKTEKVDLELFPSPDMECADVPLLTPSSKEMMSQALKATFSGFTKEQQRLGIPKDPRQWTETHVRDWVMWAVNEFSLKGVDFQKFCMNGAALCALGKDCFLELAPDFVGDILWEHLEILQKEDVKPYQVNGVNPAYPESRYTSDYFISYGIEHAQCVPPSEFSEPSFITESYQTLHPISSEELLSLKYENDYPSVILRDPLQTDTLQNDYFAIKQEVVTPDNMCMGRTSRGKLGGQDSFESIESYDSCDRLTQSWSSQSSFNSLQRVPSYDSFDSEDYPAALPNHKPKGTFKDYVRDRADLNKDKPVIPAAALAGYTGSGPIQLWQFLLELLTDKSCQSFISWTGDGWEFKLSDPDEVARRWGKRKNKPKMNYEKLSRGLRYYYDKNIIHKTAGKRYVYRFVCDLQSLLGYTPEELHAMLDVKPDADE
The experiment in a line: ETS1 binding intensity (PBM fluorescence) (arbitrary fluorescence units); higher = stronger binding. The conditions noted are these: ETS1 concentration 10 nM. The method, then: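 gcPBM on wild-type 36-bp genomic probes with two neighbouring ETS1 sites (4-24 bp apart). Recombinant human ETS1 (10 nM) was detected with anti-ETS1 antibody fluorescence. Values are medians over 3 replicate spots. The probes sit in constant array flanks that are not printed.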
In the case of TCTGGCCCTTCCTGCCCCAGGGACTTCCTGTTGCTA, the ETS1 binding intensity is 11900. Next, GCTCTCATCCGCACTGTCTCTTACAACATCCTGGCA: 3020; TAGAGGGAGACAGGAAGACAGGAAGGGGAGTATGCT: 1530. In the case of CTCATGGGAAATGTAGTCCTCATCGGCTTCCGCATC, the ETS1 binding intensity was found to be 229. The value for CCCACGAGGGAAGTGTCCCCTGCCCATCCTGCCTTA was 188; that for CAAGAACGCATACATCCTCAGGAAACTCACACTTCG was 580; that for CCGGGGCGGAACCTGGACTCCCCGCCTTCCTCCCAC was 179. As to GACTGCACTTCCTAAAACAAGCACATCCCCATACCT, the ETS1 binding intensity was 2960. TACCAGGAAGTCTCCAAAGGAGGGAGCAGGAAGAGA had an ETS1 binding intensity of 992.

Regarding AGTCACTTCCCCCGCTGGGGACGCGCTTCCTCCCCG, the ETS1 binding intensity was found to be 3860. Sequence GTGGACTTCCTTGACCCAGACTTTCAGGAAGGAGCT gave an ETS1 binding intensity of 4530.

With GGCCGCTCCCCGGAAGGCCTCATCCTGCGCGGCTGG, the ETS1 binding intensity stood at 989. The value for TGGAGATCCAGGAAGCAGGACAGGATGTGTGGTGCT was 2750. The sequence GAGGCGCTTCCTCAGTTGGACTCCACTTCCTCTCCG gave an ETS1 binding intensity of 4590. For ATTTTTAAAACAGGAAAACGTTTCCCTTACTCGAAC, the ETS1 binding intensity is 799.

For CCCTGCGTTTCCCTCATGAGCTTCTTCCGCCCGCAA, the ETS1 binding intensity was determined as 788. The sequence GAGAGCGGAACACTGCGTACGCGCACTTCCGGTCTT yielded an ETS1 binding intensity of 21400. The value for GCGCGGAAAACCCGGAAAGTGGATTTCGCCCCCGCT was 297; that for GAGGCCGGATGTGAGTGGAGCGGCCATTTCCTGTTT was 28400; that for GATTAAAGGGATGTGACCCAGTTACTTCCTTTGCCC was 453.

The sequence ACGTGCGCGGAAATGGCACGCCCGTTTCCGTGTGAA yielded an ETS1 binding intensity of 1400.

AGCCGGCTTCCGTGAGGTACGTCTACTTCCGGTTAA came in with an ETS1 binding intensity of 20200. CCTGAAACATACAGGAAAGGGAATTCTGGGAAACGT: the ETS1 binding intensity was determined as 345. GCCACGGGGAGTCCGGAAGGAAGCCACTGCCTGGGC yielded an ETS1 binding intensity of 633. Next, CGCACCGCGCTTCCTCCCTTTCTTTCCCTTCCTGCG: 5430.

Regarding CGCCGCCGACAAGCGGAACATCCTCCGTACACGTCC, the ETS1 binding intensity amounted to 356. In the case of CTGTCTCAGGAAACGGCGGCCGATTTCCTGTCTCTG, the ETS1 binding intensity turned out to be 4790. Turning to GGCGCCGCCCCCGGAAGTACTTCCCCTTAAAGGCTG, the ETS1 binding intensity was 19600.

In the case of TATATAAACAGGAAGGAGCAGATTTCCTTTCTGAAG, the ETS1 binding intensity stood at 4860. On to CGCCGCATCCGGTAGCGAGAGTTCAACTTCCTGACT, for which the ETS1 binding intensity worked out at 56600. Sequence GGCGCCGGAAGTGAGCTGCGCAGCGCCGGAAGCGGC displayed an ETS1 binding intensity of 32400.

CAGGCGCTGGCAGGATTGCGTTTCCGCCCAAGGCCA returned an ETS1 binding intensity of 1670. Sequence ACAATGAGAGGAAATGGGGCTGCAGGAAATGGCCAT had an ETS1 binding intensity of 2770. The value for AAGTCAGGAAACAACAGATGCTACAGAGGATGTGGA was 360; that for AGGCAGGGGAAATGTCTTTACCAGCTTCCTCCTGGT was 248. With ACGGCGGGAAGTTAGGGGCTAGACTGGGAAGTGGGG, the ETS1 binding intensity turned out to be 452. The sequence AAAGCAGGAAACAACAGATGCTAGAGAGGATGTGGA gave an ETS1 binding intensity of 1650. Sequence CTAAGCCAGAGGAAGTGCTTGAGGAAGTAATGTGTT gave an ETS1 binding intensity of 1110. Sequence GGTACACAGGATGTCTCAGTTTTACTTCCTACAGCT displayed an ETS1 binding intensity of 4680. GACCGCGCTCTACTTCCTGATCCGGGCGTTTAGGTG displayed an ETS1 binding intensity of 6250. With ACAAGAAAACGGTTTCCGGTTTCCGTCTTCAATTTG, the ETS1 binding intensity was 32000.

On to CAGGGCCTCATCCGGGTCAGAGCCGGAACCTGGGGA, for which the ETS1 binding intensity is 4230.

As for GGCCACATCCTGCTCACTCACTCAGTTTCCTGCTAG, the ETS1 binding intensity worked out at 34400.

Sequence GAAAGAGAAAGGAAATAGAGCAAGGATGTGCCCGGT returned an ETS1 binding intensity of 1290. The sequence CAGCAGAGCTTCCGGTCTTACCCAGGAAGTCTACAC had an ETS1 binding intensity of 52000. As for CCAGCAGGAAGCCACCCTGACTGAACTTCCGGGGGA, the ETS1 binding intensity is 6030.

The sequence ACTGGGAATCGGATGTGTCTCATATCCTCTGATTCT returned an ETS1 binding intensity of 722. In the case of TCAGTGGGCGGAAGAGGTGGCCCCGGATGCTGCGGC, the ETS1 binding intensity came out at 1430. The value for CAGCCAGCAGGAAGCCAGCTAACAGGAAGGTAACGC was 1880; that for AGTAATAGAAAACAGGAAGGAAGTGGGTTTGTAAGA was 1430. Sequence TCAGAAGGAAGTGTGTGACCAAGGAGAGGAAATTAG came in with an ETS1 binding intensity of 554. Take AAAGCTCTTATTTCCCAGGGCTTCCGTTTCCGTATT: the ETS1 binding intensity was determined as 1310. The value for TGGGACAGGAAGTGAAAGAGACCACATCCTCTTGAA was 16900; that for AGCAGAGGAGGAAATGAAGACACAGGAAAGTCAGGT was 904.

In turn, TTCATTTCCGGCGGCGGAGGCGGCAGTTTCCTAAGC showed an ETS1 binding intensity of 73000. TTGTTTGGGAAATGGCAGAGGGACCTTCCTGTTAGG returned an ETS1 binding intensity of 241. The value for CAGGTTGTGGGAGGAAGAAAGGAAGTGGCTTGGCTA was 502.

With GCCCCGGAACAAGATCTGGGGAGGGACAGGAAGTGT, the ETS1 binding intensity was found to be 2060. With GTCCCAGGAAGAAGTGCATGCCTAGCTTCCTGCCAG, the ETS1 binding intensity was determined as 1060.

Regarding TCCGCCGGAAGCCGGTCAGCGCCAGCCGGAAGCCCC, the ETS1 binding intensity came to 5560. Consider GGTGATACAGGAAACTGTCTTGTCTTCCTCCCCTGT, for which the ETS1 binding intensity is 2960. Sequence CGCCCATTTCCTGAACATGCCCCCTTTCCTGCCCAA returned an ETS1 binding intensity of 9930.

TTCCTCAGGGAAGTTCGGGTGAGAGGAAGTGCCTGC: the ETS1 binding intensity amounted to 228.
